Experimental data reported in article PMC12040169 (PLOS Biology, 2025).
The other results are listed elsewhere or left out.

Each compound was assayed on T1, C. trachomatis L2/434/Bu expressing GFP (CTL2-GFP). Conditions: total inclusion area; 28.5 h, 10 µM; inhibitor.
T1 construct: L2/434/Bu GFP intracellular growth in HeLa cells
Parameters: species or system HeLa; C. trachomatis total inclusion area by high-content imaging, normalised to DMSO
In short: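 Imaging read-out: GFP inclusions and Hoechst nuclei captured by high-content imaging after fixation. Inclusion area/number = chlamydial growth; nuclei count = host cell viability. MIC calculated per earlier method.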

| SMILES | % of control remaining |
| --- | --- |
| O=C(O)CCC(=O)Nc1ccc(Br)cc1C(=O)c1ccccc1 [CBK262610] | 97.1217 |
| Cc1cc(C)c2nc(-n3cncn3)c(C)cc2c1 [CBK025958] | 84.4275 |
| O=C(NCC(=O)N1CCCC1c1cccs1)c1cccc(Br)c1 (stereo not shown) [CBK305655] | 118.59 |
| Cc1cccc(OCCCC(=O)Nc2ccc(S(N)(=O)=O)cc2)c1C [CBK267963] | 107.997 |
| CCOc1ccc2nc(NC(=O)CC)sc2c1 [CBK287295] | 64.7584 |
| CN(Cc1ccc(-c2ccc(S(C)(=O)=O)cc2)nc1)C1CCN(C(=O)c2cc(Cl)ccc2Cl)CC1 [CBK165943T] | 78.1307 |
| CO[C@]1(c2cccc(C)c2)CC[C@@H](N2CCCCC2)CC1 [CBK015909G] | 53.3243 |
| Cc1sc(NC(=O)c2cc(-c3ccncc3)nc3ccc(Cl)cc23)c(C#N)c1C [CBK267742] | 94.445 |
| c1coc(-c2nnc(Nc3nc4cc5c(cc4s3)OCO5)o2)c1 [CBK287492] | 106.043 |
| O=C(CN1C(=O)c2ccc(Br)cc2C1=O)OCc1ccc(S(=O)(=O)N2CCOCC2)cc1 [CBK267505] | 104.983 |
| Cc1cc(NS(=O)(=O)c2ccc(NC(=O)c3ccc(C(C)(C)C)c(Br)c3)cc2)no1 [CBK265629] | 83.9947 |
| CS(=O)(=O)NC1CCN(c2nc(C(=O)O)nc3ccccc23)CC1 [CBK304316N] | 78.378 |
| CC1CCc2n[nH]c(C(=O)NCCCC3CCOC3)c2C1 (stereo not shown) [CBK283212] | 99.885 |
| CCn1c(CC2CCN(C(=O)CCn3nnnc3C)CC2)nn(C)c1=O [CBK307400] | 54.1933 |
| Cc1noc(C)c1CN(C)C(=O)NC1CCCc2c1cnn2CCO (stereo not shown) [CBK306283] | 35.216 |
| Cc1noc(C)c1NC(=O)c1ccc2nccnc2c1 [CBK200221] | 94.2818 |
| COC[C@@H]1CCCN1S(=O)(=O)c1ccc(OC(F)(F)F)cc1 [CBK044338] | 107.817 |
| Cn1cc(CCNC(=O)Nc2ccc(CN3CCCC3=O)cc2)cn1 [CBK305410] | 55.5069 |
| Clc1cc(NCc2ccc(Cl)c(Cl)c2)n2nccc2n1 [CBK037043] | 73.5118 |
| CN1CCC(Oc2ncccc2OCc2ccccc2)CC1 [CBK036311] | 94.7201 |
| COC(=O)C1C(=O)Oc2ccc3ccccc3c2C1C(C)C(=O)c1ccc(Br)cc1 (stereo not shown) [CBK266126] | 107.671 |

| SMILES | % of control remaining |
| --- | --- |
| OC1(c2cccnc2F)CCN(Cc2ccc(F)cc2F)CC1 [CBK284369] | 91.7577 |
| O=[N+]([O-])c1cc(S(=O)(=O)Nc2ccc3cn[nH]c3c2)ccc1Cl [CBK067160] | 84.4769 |
| COC(=O)c1csc2nc(NCCCO)sc12 [CBK058832] | 74.3287 |
| Fc1cccc(NCc2ccccc2)n1 [CBK000149] | 73.037 |
| CC(C)(C)OC(=O)N1CCC(COc2ncc(-c3ccc(C(=O)N4CCC[C@@H]4CO)nc3)cn2)CC1 [CBK170022] | 61.6238 |
| O=C(COc1ccc(F)cc1)Nc1ccc2[nH]ccc2c1 [CBK159689] | 97.0406 |
| CC(C)CC(=O)N1CCC(Cc2ccccc2-c2cccs2)(C(=O)NC(C)C)CC1 [CBK285898] | 114.123 |
| CC(NC(=O)N1CCc2ccccc2C1)c1ccccc1 (stereo not shown) [CBK155310] | 105.243 |
| CCOC(=O)c1c(NC(=O)CN2CCN(c3ccc(F)cc3)CC2)sc2c1CCCC2 [CBK265536] | 97.3755 |
| O=C(NCc1ccc2c(c1)OCO2)c1ccc(S(=O)(=O)N2CCCC2)cc1 [CBK263590] | 94.8778 |
| CC(=O)N(Cc1ccccc1)C1CCCc2c1[nH]c1ccc(C)cc21 (stereo not shown) [CBK261810] | 100.891 |
| OC1CCCCC1C1(NC(=S)Nc2ccccc2)CCCCC1 (stereo not shown) [CBK026324] | 35.8329 |
| COc1ccc(Nc2cc(-c3cccc(NC(C)=O)c3)ncn2)cn1 [CBK037125] | 99.0669 |
| O=C(NCc1ccco1)c1cc(-c2ccc3[nH]ccc3c2)cnc1NCCOc1ccccc1 [CBK106388] | 89.1453 |
| O=C(Cn1cnc2ccc(F)cc2c1=O)N1CCOC2CCCC21 (stereo not shown) [CBK304932] | 48.346 |
| CCCc1n[nH]c(=S)n1CC(=O)Nc1cccc(-n2ncc(C(=O)OCC)c2C)c1 [CBK297746] | 79.1559 |
| O=C(CN1CCN(C2CCCC2)C(=O)C1)N1CCCc2ccccc21 [CBK282132] | 106.956 |
| O=C(COc1ccc(-c2cnc3ccccc3n2)cc1)c1cccc([N+](=O)[O-])c1 [CBK266367] | 120.315 |
| CCc1cc2c(=O)c(-c3nc(C)cs3)c(CCCC(=O)O)oc2cc1O [CBK264834] | 108.459 |
| COC(=O)c1c(NC(=O)C2CC=CCC2C(=O)O)sc2c1CCC(c1ccccc1)C2 (stereo not shown) [CBK263683] | 102.065 |
| CCN(CC)C(=O)CN1CCN(c2nccnc2OC)CC1 [CBK084221] | 63.2626 |

| SMILES | % of control remaining |
| --- | --- |
| Cc1ccsc1CNC(=O)OCC1CCN(C)CC1 [CBK200149] | 84.4802 |
| O=C(O)Cc1nnnn1-c1ccccc1 [CBK262984] | 83.9136 |
| CCc1nc2ccc(C(=O)Nc3ccc(Cl)c(Cl)c3)cn2c1N(C)Cc1ccc(OC)cc1 [CBK145585] | 78.3336 |
| Cc1cc(=O)oc2cc(OCC(=O)Nc3cccc(C(=O)O)c3)ccc12 [CBK287058] | 119.337 |
| COc1ccc(SCC(=O)Nc2nccs2)cc1 [CBK287751] | 80.0216 |
| Cc1ccc2nc(CNC(=O)CN(C)C3CCNCC3)cn2c1 [CBK307228] | 62.3668 |
| Cc1cn(C(C)(C)C(=O)N2CCOCC2)nc1-c1ccccc1Cl [CBK005206] | 53.4902 |
| O=C(O)C1CC=CCC1C(=O)NCc1ccc2c(c1)OCO2 (stereo not shown) [CBK264209] | 127.562 |
| O=C(O)c1cc(Nc2nc(N3CCOCC3)nc(N3CCOCC3)n2)ccc1Cl [CBK268081] | 92.6344 |
| Cc1nc(NCc2ccc(C(F)(F)F)cc2)nc(N2CCN(C)CC2)n1 [CBK023866] | 98.1589 |
| CN(CC#CCN1CCCC1)C(=O)CNC(=O)OC(C)(C)C [CBK007489] | 56.8771 |
| c1ccc(COc2ccccc2CNCCN2CCOCC2)cc1 [CBK278212C] | 97.829 |
| FC(F)(F)c1ccccc1/C=N/n1c(S)nnc1COc1ccccc1 [CBK265260] | 103.744 |
| OCCN(CCO)c1cncc(-c2ccc(Cl)cc2)n1 [CBK065748] | 111.415 |
| N=C1OC2CSCC2N1C(=O)C1(c2ccccc2)CC1 (stereo not shown) [CBK284524] | 126.364 |
| O=C1COc2ccccc2CCCCC2(CCCN(CC(=O)N3CCCC3)C2)CN1 (stereo not shown) [CBK292009] | 84.6757 |
| Cc1ccn(CCNC(=O)C(C)Cc2cccs2)n1 (stereo not shown) [CBK281625] | 84.0222 |
| Cn1ccnc1C1(O)CC2CCC(C1)N2C(=O)NCc1ccccc1 (stereo not shown) [CBK284050] | 96.65 |
| COc1cc(-c2cncc(Nc3ccc4c(c3)OC(F)(F)C(F)(F)O4)n2)cc(OC)c1OC [CBK065138] | 79.3085 |
| CS(=O)(=O)Nc1ccc(-c2cc(F)cc(F)c2)c2ccccc12 [CBK083743] | 92.9 |
| N=c1n(CCCOc2ccccc2Cl)c2ccccc2n1CC(N)=O [CBK268927C] | 101.249 |

| SMILES | % of control remaining |
| --- | --- |
| CCOc1ccc2[nH]c(C(=O)NC3CCCOC3)c(C)c2c1 (stereo not shown) [CBK282529] | 119.641 |
| COC(=O)c1ccccc1N1C(=O)c2cccc([N+](=O)[O-])c2C1=O [CBK115382] | 85.4583 |
| Cc1nonc1NC(=O)CSc1nc2ccccc2[nH]1 [CBK269273] | 89.4509 |
| Fc1ccccc1CCOc1cncc(Cl)n1 [CBK176038] | 35.53 |
| CCOc1ccc(S(=O)(=O)NCCOC)cc1Cl [CBK270251] | 75.3362 |
| Cc1cc(OCC(O)CN2CCN(CCO)CC2)ccc1C(C)C (stereo not shown) [CBK278254C] | 102.66 |
| N#CCCn1cc(C(N)=O)c(-c2cc3ccccc3o2)n1 [CBK306204] | 57.0278 |
| CN1CCCN(C(=O)c2ccc(-c3nc(-c4ccc(C#N)cc4)cnc3N)cc2)CC1 [CBK107140] | 58.4865 |
| Fc1ccc(-c2cc(Nc3ccccc3)ncn2)cc1F [CBK090913] | 98.2392 |
| Cc1ccc(S(=O)(=O)NCCn2nc(C)c(C)c2C)s1 [CBK281502] | 104.072 |
| O=C(NC(c1ccccc1)c1ccccc1)C1(c2ccccc2)CCCC1 [CBK149536] | 86.3148 |
| CCCCc1ccc(N2C(=O)CC(Nc3ccc(C(=O)O)cc3)C2=O)cc1 (stereo not shown) [CBK296972] | 91.399 |
| COc1ccc(C(NC(=O)N(C(C)C)C(C)C)c2nccn2C)cc1 (stereo not shown) [CBK283568] | 69.3618 |
| Cc1c(C(N)=O)sc2ncn(CCc3ccccc3)c(=O)c12 [CBK268492] | 115.818 |
| Cn1cc(C(NC(=O)c2cn3ccsc3n2)C2CC(O)C2)cn1 (stereo not shown) [CBK307428] | 59.707 |
| CCOc1ccc(-c2ccnc(N3CCOC(CN)C3)n2)cc1C(=O)O (stereo not shown) [CBK307644] | 67.8528 |
| Cn1ncnc1CCNC(=O)N1CCCN(Cc2cccs2)CC1 [CBK307670] | 54.4197 |
| O=C(O)c1cc(C=Cc2ccc(OC(F)F)cc2)nc2ccccc12 [CBK297532] | 93.845 |
| COc1cc(C)ccc1S(=O)(=O)Nc1cc(OC2CCNCC2)c2occc2c1 [CBK074192C] | 95.3666 |
